Read-outs that look alike come from different tables or passages of the source.
What was measured:
[1] = system: CDK12-cyclin K or CDK13-cyclin K complexes; conditions: Jurkat cells, 1 μM compound, 6 hrs, lysate with 1 μM THZ1-biotin
[2] = system: HAP1 CDK12 C1039S/CDK13 C1017S double mutants cells; experiment: Anti-proliferative activity, HAP1 CDK12 C1039S/CDK13 C1017S double mutant cells (CellTiter-Glo); format: cell-based; conditions: 72 hrs, mutant vs WT
Method: Select compounds described herein were evaluated for anti-proliferative activity. HAP1 WT and CDK12 C1039S/CDK13 C1017S double mutants cells were seeded at a density of 12,000 cells/well in 96-well plates. Twenty-four hours later cells were then treated with compound BSJ-01-175-1 in a 10-pt dose escalation format from 1 nM to 10 μM or DMSO control for 72 hrs. After 72 hrs, cells were assayed using CellTiter-Glo Luminescent Cell Viability Assay (Promega) to determine cell viability by measuring the amount of ATP present in each sample cell population, which is an indicator of cell metabolic activity. Results are graphed as fraction of the DMSO control at 72 hrs. All data points were performed in biological triplicate.

[3] = target: T1, CDK7-cyclin H complexes (Homo sapiens, UniProt P50613); experiment: THZ1-biotin pull-down from treated Jurkat cells, western blot for cyclin H; format: cell-based; conditions: 1 μM compound, 6 hrs, lysate with 1 μM THZ1-biotin
T1 construct: endogenous in cells; host or cells: Jurkat

[4] = target: CDK12 (Homo sapiens, UniProt Q9NYV4); experiment: Mass spectrum labeling of CDK12; format: binding; conditions: 5-fold excess of compound, 1 hour, room temperature

Row | SMILES | Cyclin K pulldown with THZ1-biotin (binding of intracellular CDK12/13-cyclin K complexes) [1] | Sensitivity of HAP1 CDK12 C1039S/CDK13 C1017S mutant cells compared to control WT HAP1 cells ([2]; listed as BSJ-01-175-1) | Sensitivity of HAP1 CDK12 C1039S/CDK13 C1017S mutant cells compared to control WT HAP1 cells ([2]; listed as BSJ-1-0175-1) | Cyclin K pulldown with THZ1-biotin (binding of intracellular CDK12/13-cyclin K complexes) ([1]; listed as BSJ-01-175-1) | Cyclin H pulldown with THZ1-biotin (binding of intracellular CDK7-cyclin H complexes) [3] | Mass spectrum labeling of CDK12 [4]
1 | C=CC(=O)Nc1ccc(O[C@@H]2CCC[C@@H](Nc3ncc(Cl)c(-c4c[nH]c5ccccc45)n3)C2)cc1 [BSJ-01-033, N-(4-((1R,3R)-3-(5-chloro-4-(1H-indol-3-yl)pyrimidin-2-ylamino)cyclohexyloxy)phenyl)acrylamide] | loss in cyclin K pulldown |  |  |  |  | 
2 | CN(C)C/C=C/C(=O)Nc1ccc(O[C@@H]2CCC[C@@H](Nc3ncc(Cl)c(-c4c[nH]c5ccccc45)n3)C2)cc1 [BSJ-01-175, (E)-N-(4-((1R,3R)-3-(5-chloro-4-(1H-indol-3-yl)pyrimidin-2-ylamino)cyclohexyloxy)phenyl)-4-(dimethylamino)but-2-enamide] | loss in cyclin K pulldown | approximately half as sensitive | partially rescued | binds intracellular CDK12-cyclin K and CDK13-cyclin K complexes selectively | not CDK7-cyclin H | able to label CDK12
3 | CN(C)C/C=C/C(=O)Nc1ccc(C(=O)N2CCC[C@@H](Nc3ncc(Cl)c(-c4c[nH]c5ccccc45)n3)C2)nc1 [BSJ-01-202, (E)-N-(6-(3-(5-chloro-4-(1H-indol-3-yl)pyrimidin-2-ylamino)piperidine-1-carbonyl)pyridin-3-yl)-4-(dimethylamino)but-2-enamide] | loss in cyclin K pulldown |  |  |  |  | 
4 | CN(C)C/C=C/C(=O)Nc1ccc(N2CCC[C@@H](Nc3ncc(Cl)c(-c4c[nH]c5ccccc45)n3)C2)nc1 [BSJ-02-108, (R,E)-N-(6-(3-((5-chloro-4-(1H-indol-3-yl)pyrimidin-2-yl)amino)piperidin-1-yl)pyridin-3-yl)-4-(dimethylamino)but-2-enamide] | loss in cyclin K pulldown |  |  |  | loss in cyclin H pulldown | 
5 | C=CC(=O)Nc1ccc(N2CCC[C@@H](Nc3ncc(Cl)c(-c4c[nH]c5ccccc45)n3)C2)nc1 [BSJ-02-109, (R)—N-(6-(3-((5-chloro-4-(1H-indol-3-yl)pyrimidin-2-yl)amino)piperidin-1-yl)pyridin-3-yl)acrylamide] | loss in cyclin K pulldown |  |  |  |  | 
6 | C=CC(=O)Nc1ccc(N2CCC[C@@H](Nc3ncc(Cl)c(-c4c[nH]c5ccccc45)n3)C2)cc1 [BSJ-02-139, (R)—N-(4-(3-((5-chloro-4-(1H-indol-3-yl)pyrimidin-2-yl)amino)piperidin-1-yl)phenyl)acrylamide] | loss in cyclin K pulldown |  |  |  | loss in cyclin H pulldown | 
7 | CN(C)C/C=C/C(=O)Nc1ccc(C(=O)Nc2cccc(Nc3ncc(Cl)c(-c4c[nH]c5ccccc45)n3)c2)cc1 [THZ1, reference compound] | binds intracellular CDK12-cyclin K, CDK13-cyclin K |  |  |  | binds | 
